Laboratory results published in paper PMC3258025 (Molecular Cancer Therapeutics, 2010).

System: HEK-EV cells
Experiment: MTT cytotoxicity assay in empty vector-transfected HEK293 cells
Type: cell-based, human
Settings: disopyramide 150 μmol/L or cimetidine 1.5 mmol/L; P < 0.05

SMILES	Effect of OCT inhibitor on picoplatin IC50 in HEK-EV cells
CN/C(=N/CCSCc1nc[nH]c1C)NC#N [cimetidine]	small effect
CC(C)N(CCC(C(N)=O)(c1ccccc1)c1ccccn1)C(C)C (centres unmarked) [disopyramide]	small effect
